According to PubChem BioAssay AID1240 (Sanford-Burnham Center for Chemical Genomics, 2008):
About 800 (1.6%) of roughly 50,000 compounds showed an effect of 50% or more. The list shows a part of the results.

Molecular target: Bcl-2-like protein 10 (Homo sapiens) (UniProt Q9HD36)
Test: Phenotype converters, Bcl-B/TR3 peptide binding displacement, primary biochemical FP (AID 1240);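 further: 0% = Bcl-B with tracer peptide and DMSO and 100% = tracer peptide lacking Bcl-B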
Details: GST-Bcl-B / FITC-TR3 peptide fluorescence polarization; stronger effect = higher value; compound at 3.75 mg/L

UniProt Q9HD36, sequence (Q9HD36 whole entry, looked up): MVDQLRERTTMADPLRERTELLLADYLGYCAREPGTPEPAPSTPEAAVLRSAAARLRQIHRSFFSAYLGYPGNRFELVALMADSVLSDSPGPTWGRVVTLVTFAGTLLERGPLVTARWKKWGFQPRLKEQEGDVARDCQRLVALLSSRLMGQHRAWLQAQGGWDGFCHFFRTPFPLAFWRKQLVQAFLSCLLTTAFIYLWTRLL

SMILES	displacement
COc1ccc([N+](=O)[O-])cc1N=Cc1c[nH]c2ccccc12	3.9%
O=C(/C=C/c1ccccc1Cl)Nc1ccccc1[N+](=O)[O-]	12.3%
CC(=O)c1cccc(NC(=O)Nc2ccc(C)cc2)c1	-4%
COc1cccc(/C=C2/SC(=S)N(CCC(=O)Nc3nnc(C)s3)C2=O)c1	12.8%
CCOC(=O)NC(O)C(=O)c1cccs1 (configuration not stated)	10.8%
COc1ccccc1/C=C1/SC(=S)N(Cc2ccccc2)C1=O	16.7%
N/C(=N\OC(=O)c1cccc(F)c1)c1ccc(Br)cc1	6.9%
O=S(=O)(NCC(c1ccccc1)N1CCNCC1)c1ccccc1 (configuration not stated)	2.6%
Oc1c(Br)cc(Br)cc1/C=N/c1ncn[nH]1	-6%
Cc1ccc(N2CC(C(=O)Nc3ccccc3C(C)C)CC2=O)cc1 (configuration not stated)	-1.4%
CSc1sc(I)cc1/C=N/NC(=O)c1nnn(-c2nonc2N)c1C	-1.2%
O=C(N/N=C\c1ccccc1)c1cncc(Br)c1	4.8%
CCCCn1c2ccccc2c2cc(CC(N)=O)ccc21	-0.4%
O=C(Sc1nc2ccccc2[nH]1)c1ccccc1	9.2%
CCOC(=O)c1cccc(NC(=O)c2ccc(OC)c(OC)c2)c1	-1.9%
Cc1c(Cl)cccc1N=Cc1ccc[nH]1	11.3%
N/C(=N/N=C\c1cc(Br)ccc1O)c1ccccn1	3.7%
CCOC(=O)C1=C(c2ccccc2)N=C2SCC(=O)N2C1c1ccccc1 (configuration not stated)	-26.1%
COc1ccc(NC(=O)C2=C(C)NC(=S)NC2c2ccc(Br)cc2)cc1 (configuration not stated)	-9%
O=C(CSc1nsc(SCC(=O)Nc2ccccc2F)n1)Nc1ccccc1F	13.6%
O=C(Nc1ccc(Cl)cc1)NC1CC1	-1.5%
O=C(N/N=C/c1ccc(-c2ccccc2[N+](=O)[O-])o1)c1ccc([N+](=O)[O-])cc1	12.9%
COc1ccc(N=C(C)c2cc(Cl)ccc2O)cc1	17.3%
Cc1cc(Cl)ccc1OCC(=O)Nc1cccc(-c2nc3ncccc3o2)c1	21.4%

SMILES	displacement
CCCS(=O)(=O)c1c(S(=O)(=O)CCC)c2c3ccccc3ccn2c1C(N)=O	-2.3%
O=C(CN1CCCCC1)OCC1CCCO1 (configuration not stated)	-0.7%
CCOc1ccccc1NC(=O)CCc1ccccc1	-1.2%
CCOc1ccc(N(CC(=O)N2CCCC2)S(=O)(=O)c2ccc(Cl)cc2)cc1	19.2%
Cc1ccc(C(=O)Nc2ccccc2Br)cc1	0.1%
COC(=O)C1=C(C)NC2=C(C(=O)CC(c3ccc4c(c3)OCO4)C2)C1c1ccc(Br)cc1 (configuration not stated)	-21.9%
Cc1ccc(S(=O)(=O)N(CCO)CC(O)Cn2c3ccc(Cl)cc3c3cc(Cl)ccc32)cc1 (configuration not stated)	-2.1%
O=c1c(Oc2ccc(Cl)cc2Cl)c(C(F)(F)F)oc2cc(O)ccc12	3.3%
Cc1ccc(/C=N/NC(=O)CSc2nc3ccccc3[nH]2)o1	-9.4%
CCOC(=O)c1c(NC(=O)CSc2nc3ccccc3s2)sc2c1CCC2	-17.9%
O=C1N=C(N2CCOCC2)S/C1=C\c1cccc(O)c1	13.1%
Cc1ccc(-n2nc3cc(C)c(NC(=O)C(C)C)cc3n2)cc1	-4.7%
CC(=O)CC(=O)NCc1ccc(F)cc1	-4.8%
COc1cccc(C(=O)NN=C2CCCC2)c1	-7.7%
Cc1c(NC(=O)CCN2C(=O)/C(=C\c3cccs3)SC2=S)c(=O)n(-c2ccccc2)n1C	10.1%
Cc1cc(C)cc(OCCCCNC(C)(C)C)c1	5.2%
CCCCN1C(=O)c2ccccc2S1(=O)=O	0.6%
COc1cccc(NC(=O)COc2ccccc2C)c1	-12.6%
COc1ccc(CCNC(=O)c2ccc(OC)c(OC)c2)cc1	-2.8%
CCOc1ccc(N(CC(=O)NC)S(C)(=O)=O)cc1	10.7%
COc1ccc(C(=O)Nc2ccccc2)cc1S(N)(=O)=O	-8.1%
CCSC1=C(C#N)C(CC(C)C)C2=C(CCCC2=O)N1 (configuration not stated)	-6.6%
O=C1NC(=O)N(c2ccc(Cl)cc2)C(=O)/C1=C/c1cccc(C(F)(F)F)c1	-13.9%
Cc1cc(C)c(C(=O)/C=C/c2cccc([N+](=O)[O-])c2)cc1C	2.4%

SMILES	displacement
Cc1ccc(-c2cc(C(=O)N/N=C/c3ccc([N+](=O)[O-])cc3)[nH]n2)cc1	-9.4%
CCCCNCCCCCOc1c(C)cc(C)cc1C	-4.2%
Cn1c(=O)n(CCOc2ccc([N+](=O)[O-])cc2)c2ccccc21	14.7%
O=C1c2cccc3cccc(c23)C(=O)N1c1nc(-c2ccccc2)cs1	4.5%
COc1ccc(NC(=O)C(=O)N/N=C/c2ccc3c(c2)OCO3)cc1	12.1%
Cc1c(N2C(=O)/C(=C\c3cccnc3)SC2=S)c(=O)n(-c2ccccc2)n1C	-0.4%
Cc1ccccc1C(=O)NNC(=O)c1ccccn1	-9.6%
Cc1ccc(S(=O)(=O)N(C)CCCC(=O)Nc2ccccc2C)cc1	17.9%
O=C1NC(=O)N(c2ccccc2)C(=O)/C1=C\c1ccc(-c2cccc(C(=O)O)c2)o1	15.4%
CCC/C(O)=C1\C(=O)CC(C)(C)CC1=Nc1ccc(C)c(C)c1	2.6%
COc1ccc(-c2nc3cc(NC(=O)c4ccc([N+](=O)[O-])cc4)ccc3o2)cc1Cl	24.5%
COc1cc(/C=C2\SC(N)=NC2=O)ccc1OCc1cccc2ccccc12	48.9%
Cc1ccc(C2=CC(=O)N(c3cccc(Br)c3)C2=O)cc1	-5.9%
Cc1cccc(N2C(=O)NC(=O)/C(=C\c3ccc(Oc4ccc([N+](=O)[O-])cn4)cc3)C2=O)c1	1.4%
Cc1cc(C)c(NC(=O)c2c(-c3ccccc3)noc2C)c(C)c1	-3.9%
CC(C)C(C(=O)O)N1C(=O)/C(=C/c2ccc3c(c2)OCO3)SC1=S (configuration not stated)	0.5%
NC1=NC(=O)C(CC(=O)Nc2ccccc2F)S1 (configuration not stated)	-6.5%
Cc1ccc2nc(-c3cc(NC(=S)NC(=O)c4ccco4)ccc3Cl)oc2c1	28.2%
COc1ccc2c(c1)nc(SCc1ccc(Cl)cc1)n2C	1.6%
COc1cc(/C=C(\C#N)c2nc3ccccc3[nH]2)ccc1OCC(=O)O	43.5%
O=C(O)CN1C(=O)/C(=C/C=C/c2ccccc2[N+](=O)[O-])SC1=S	12.3%
Cc1cc(C)cc(N2C(=O)NC(=O)/C(=C\c3ccc(OC(C)C)cc3)C2=O)c1	-11.2%
COc1ccc(N(CC(=O)N(C)Cc2ccccc2)S(C)(=O)=O)c(OC)c1	6.6%
Nc1nc(-c2ccccc2)c(I)c(=O)[nH]1	-5.4%
